# Test results as given in PubChem BioAssay AID624296 (National Center for Advancing Translational Sciences (NCATS), 2012).
# Out of some 350,000 compounds screened, about 9,900 (2.8%) were called active. This list was built around the results that the source calls inconclusive (neither active nor inactive); the mix of calls is not that of the screen. Calls come from the whole dose curve; as a rule, active = well fitted activation curve with a large enough effect; inconclusive = small, poorly fitted or top-dose-only effect; inactive = no such curve, though single readings can be large or run the other way. No potency is given beside an inconclusive call; the fits are too rough.
# Assay: A quantitative high throughput screen for small molecules that induce DNA re-replication in MCF 10a normal breast cells. For activity, positive = re-replication: % of control where 0% means no effect. Note: nearly all actives have a fitted effect of over 50% in size.
# Settings: MCF 10A DNA re-replication, Hoechst nuclear intensity, 48 h; activity, positive = re-replication: at 46.1 µM (top of the series)
# Potency is the fitted concentration of half-maximal effect; tags give direction and shape of the fitted curve.
Structure (SMILES),Potency,"activity, positive = re-replication"
NC(=O)c1ccsc1NC(=O)COC(=O)Cc1ccccc1Cl,"inconclusive [activator, single point]",–
NC(=S)c1cc2cc(Br)ccc2oc1=O,inactive,–
CC(=O)c1ccc(Sc2ccccc2)c([N+](=O)[O-])c1,"inconclusive [activator, partial curve, poor fit]",–
COc1ccc(-c2cc3c(=O)n(CC(=O)NCCCN4CCC(Cc5ccccc5)CC4)ncn3n2)cc1,inactive,–
O=C(Cn1c(=O)[nH]c2ccsc2c1=O)N1CCN(c2ccc(F)cc2)CC1,inactive,–
[O-]/C(=C(\C(=S)NCc1ccco1)[n+]1ccccc1)c1ccccc1Br,inactive,–
Cc1cccc(-n2c(C)cc(C=C3C(=O)c4ccccc4C3=O)c2C)c1,"inconclusive [activator, single point]",–
O=C(CN1C(=O)NC(c2ccccc2)(c2ccccc2)C1=O)N1CCOCC1,inactive,–
COc1ccccc1-n1cc(-c2ccc(C)cc2)[nH]c1=S,active: 18.4 µM,–
COc1ccc(C(=O)CC(=O)Nc2ccc([N+](=O)[O-])cc2)cc1,"inconclusive [activator, single point]",–
Cc1nn2c([nH]c(=O)c3ccccc32)c1C=O,inactive,–
CC(C)N(c1ccccc1)c1ccc(NC(=O)CCl)cc1,"inconclusive [activator, single point]",–
Cc1cc(C(=O)CSc2nnc(-c3ccc4c(c3)OCO4)o2)c(C)n1-c1ccc(F)cc1,"inconclusive [activator, full curve, poor fit]",–
CCc1cc2ccc(OC)cc2nc1SCC(=O)NNC(=O)c1ccco1,inactive,–
N#C/C(=C\c1ccc(Cl)cc1Cl)c1n[nH]c(Cn2cncn2)n1,inactive,–
O=C(COC(=O)CSc1ccc(Cl)cc1)Nc1ccccc1,"inconclusive [activator, single point]",–
CSc1ccccc1NC(=O)CSCc1nc2sc(C)c(C)c2c(=O)[nH]1,active: 2.31 µM,–
CCN(C(=O)COC(=O)c1n[nH]c2ccccc12)c1ccccc1,"inconclusive [activator, single point]",–
Cc1cnc(C(=O)Nc2ccccc2-c2ccc(C)o2)cn1,"inconclusive [activator, single point]",–
COc1cccc(NC(=O)[C@@H]2CCC(=O)N2C2OC(=O)c3ccccc32)c1 (stereo partly specified),inactive,–
O=C(Cc1ccc(NC(=O)C2CCN(C(=O)c3ccccc3)CC2)cc1)Nc1cccc(C(=O)N2CCCC2)c1,"inconclusive [activator, full curve, poor fit]",–
O=C(Nc1ccc(Cc2ccncc2)cc1)C1CCC(N2C(=O)C3C4C=CC(C4)C3C2=O)CC1 (stereo unspecified),inactive,–
Cc1ccc(C(=O)CSc2nc(O)cc(=O)[nH]2)cc1C,inactive,–
CC1=NN(S(=O)(=O)c2ccc(C)cc2)C(=O)c2ccccc2O1,inactive,–

Structure (SMILES),Potency,"activity, positive = re-replication"
COc1ccc(CC(=O)OCC(=O)c2ccc(F)cc2)cc1,inactive,–
Nc1c(C(=O)c2cccs2)oc2ccccc12,"inconclusive [activator, partial curve, poor fit]",–
N#Cc1ccsc1NC(=O)COC(=O)c1cc2ccccc2cc1O,"inconclusive [activator, single point]",–
C/C(=N\NC(=O)C1(C)CC1(Br)Br)c1ccc(NC(=O)C2CCC2)cc1 (stereo unspecified),"inconclusive [activator, single point]",–
COC(=O)/C(=C/c1ccco1)NC(=O)c1ccc(Br)o1,"inconclusive [activator, single point]",–
CCc1ccc(S(=O)(=O)NCC2(N3CCOCC3)CCCCC2)cc1,inactive,–
CC(C)CC(NC(=O)c1cccs1)c1nnc(SCc2ccc(Cl)c(Cl)c2)n1C (stereo unspecified),active: 18.4 µM,–
COc1ccc(/C=C/C(=O)OCC(=O)NCc2ccco2)cc1OC,"inconclusive [activator, partial curve]",–
Cn1c(=O)[nH]c(=O)c2c1nc(N1CCCCCC1)n2Cc1cccc2ccccc12,"inconclusive [activator, partial curve, poor fit]",–
O=C(Nc1ccc(OC(F)(F)F)cc1)c1cnccn1,"inconclusive [activator, partial curve, poor fit]",–
CCN(CC)CCN1C(=O)C(=O)/C(=C(/O)c2ccc(S(=O)(=O)N3CCOCC3)cc2)C1c1ccccc1 (stereo unspecified),inactive,–
C/C(=N\OCC(=O)OCC(=O)NC(=O)c1ccccc1)c1ccc2c(c1)OCO2,inactive,–
Cc1cccc(OCC(=O)Nc2ccc3c4c(cccc24)CC3)c1C,"inconclusive [activator, partial curve]",–
Cc1cc(Nc2cccc(Cl)c2)nc(-c2ccccc2O)n1,"inconclusive [activator, single point]",–
O=C(C1=C[C@H](C2CC2)C[C@H](OCc2ccc(CO)cc2)O1)N1CCN(Cc2ccccc2)CC1,–,inconclusive: 33.9% [activator]
CN(CCCNC(=O)Cn1cccc1C(=O)c1ccccc1)C1CCCCC1,inactive,–
O=C(NCc1ccccn1)Nc1ccc(Cl)cc1Cl,"inconclusive [activator, full curve]",–
Cc1ccccc1-n1c(SC(C)C(=O)NCC2CCCO2)nnc1-c1ccncc1 (stereo unspecified),inactive,–
CCCCCCCCOC(=O)c1nc(Cl)c(Cl)c(N)c1Cl,"inconclusive [activator, partial curve, poor fit]",–
O=C(CN1CCN(Cc2ccccc2)CC1)c1ccc(Br)cc1,"inconclusive [activator, single point]",–
CCOc1ncccc1C(=O)N1CCCSC1=Nc1ccc(C(C)=O)cc1,active: 0.92 µM,–
O=C(N/N=C/C(Br)=C/c1ccccc1)c1cccnc1,"inconclusive [activator, single point]",–
CCN1CCc2c(sc(NC(=O)c3ccc(C(=O)c4ccccc4)cc3)c2C(N)=O)C1,"inconclusive [activator, single point]",–
CCOC(=O)c1c(/N=C/N(C)C)sc(/C=N/Nc2ccccc2)c1-c1ccc(Cl)cc1,active: 20.6 µM,–

Structure (SMILES),Potency,"activity, positive = re-replication"
COc1ccc2cc(N=Cc3nc(-c4ccc(C)cc4)oc3O)cnc2c1,"inconclusive [activator, single point]",–
CC(NC(=O)CCSc1nc(-c2ccco2)cc(C(F)(F)F)n1)c1ccccc1 (stereo unspecified),"inconclusive [activator, single point]",–
CCOc1ccc(NC(=O)CCC(=O)NNC(=O)c2ccc(Br)o2)cc1,inactive,–
COc1ccc2c(c1)c(CC(=O)Nc1nnc(C3CC3)s1)c(C)n2C(=O)c1ccc(Cl)cc1,active: 10.3 µM,–
CCOC(=O)C1CCCN(S(=O)(=O)c2cccs2)C1 (stereo unspecified),"inconclusive [activator, partial curve, poor fit]",–
O=C(CSc1nnc(-c2ccc(Cl)cc2)n1CC1CCCO1)NC1CCS(=O)(=O)C1 (stereo unspecified),active: 1.16 µM,–
Cc1cc(C)cc(N(CC(=O)N2CCN(c3ccccc3)CC2)S(=O)(=O)c2c(C)noc2C)c1,"inconclusive [activator, single point]",–
O=c1[nH]c2ccc(S(=O)(=O)Nc3ccc(-c4nnc5n4CCCCC5)cc3)cc2o1,inactive,–
Cc1ccc2[nH]c3c(c2c1)CCCC3=O,inactive,–
COc1ccc(-c2noc(CSc3nc4ccccc4c(=O)n3-c3ccccc3)n2)cc1,"inconclusive [activator, partial curve, poor fit]",–
Oc1ccc2ccccc2c1N=Nc1nccs1,"inconclusive [activator, single point]",–
Cc1ccc2ncnc(Nc3cccc([N+](=O)[O-])c3)c2c1,"inconclusive [activator, partial curve]",–
Cc1ccc(S(=O)(=O)N2CCC(=O)N(C(COCc3cccc(C(F)(F)F)c3)Cc3ccccc3)CC2)cc1 (stereo unspecified),"inconclusive [activator, single point]",–
O=C(CN1CCCCC1)N1c2ccccc2Sc2ccc(C(F)(F)F)cc21,"inconclusive [activator, partial curve, poor fit]",–
COc1ccc(N2CCN(c3nc(Cl)nc(Nc4ccc(F)cc4)n3)CC2)cc1,"inconclusive [activator, partial curve, poor fit]",–
Cc1cc(NC(=O)CSc2nnc(-c3c[nH]c4ccccc34)n2-c2ccc(F)cc2)no1,"inconclusive [activator, partial curve, poor fit]",–
O=C(COC(=O)c1ccc(O)cc1)NCCc1c[nH]c2ccccc12,inactive,–
CCCC[C@@H]1C=C(C(=O)O)[C@H](c2ccc(CC)cc2)N1S(=O)(=O)c1ccc(C)cc1,"inconclusive [activator, single point]",–
COC(=O)C(C)NC(=O)C1CCCN1C(=O)CNC(=O)OCc1ccccc1 (stereo unspecified),inactive,–
COC(=O)Nc1csc2c1NC(=O)CCCC2,"inconclusive [activator, single point]",–
COc1cc2oc(=O)cc(-c3ccc(-c4ccc(CO)cc4)cc3)c2c(OC)c1OC,"inconclusive [activator, single point]",–
O=S(=O)(c1ccccc1Br)N(Cc1ccccc1)CC(O)COCc1ccccc1 (stereo unspecified),"inconclusive [activator, partial curve, poor fit]",–
CCC(C)(C)C1CCC2(CC1)NC(=S)N(c1ccccc1)N2 (stereo unspecified),"inconclusive [activator, single point]",–
